# Test results: ChEMBL document CHEMBL1961873, “Compounds: GSK PKIS; Assays: Nanosyn kinase panel” (2012)
# This is a selection; strong and weak results do not stand in their true shares.
# Molecular target: Calcium/calmodulin-dependent protein kinase type II subunit delta (Homo sapiens) (UniProt Q13557);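 further: mean percent inhibition of CAMK2D, from screening of the GSK Published Kinase Inhibitor Set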
# Conditions: at 1 µM
# Chain of UniProt Q13557 (Q13557 whole entry): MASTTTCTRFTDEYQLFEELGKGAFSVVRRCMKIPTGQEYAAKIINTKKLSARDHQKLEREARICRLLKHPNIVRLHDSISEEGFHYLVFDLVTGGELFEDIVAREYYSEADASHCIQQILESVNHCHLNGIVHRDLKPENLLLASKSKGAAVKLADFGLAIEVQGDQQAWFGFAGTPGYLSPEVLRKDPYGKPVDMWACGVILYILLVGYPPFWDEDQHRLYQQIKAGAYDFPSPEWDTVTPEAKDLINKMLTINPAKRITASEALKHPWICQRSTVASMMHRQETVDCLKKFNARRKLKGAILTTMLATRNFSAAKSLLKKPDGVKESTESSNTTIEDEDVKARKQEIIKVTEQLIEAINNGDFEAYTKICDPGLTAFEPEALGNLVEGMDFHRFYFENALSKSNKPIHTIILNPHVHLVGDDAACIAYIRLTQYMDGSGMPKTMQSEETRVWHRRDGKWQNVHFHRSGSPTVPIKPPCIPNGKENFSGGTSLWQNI
row,SMILES,inhibition [%]
1,O=C(O)c1ccc(Oc2nccc(-c3c(-c4ccc(F)cc4)ncn3C3CCNCC3)n2)cc1,5.47
2,CC(C)(C)c1ccc(Oc2nccc(-c3c(-c4ccc(F)cc4)ncn3C3CCNCC3)n2)cc1,8
3,Fc1ccc(Oc2nccc(-c3c(-c4ccc(F)cc4)ncn3C3CCNCC3)n2)cc1,6.35
4,COc1ccccc1C1=C(Nc2ccccc2)C(=O)NC1=O,14.9
5,Fc1ccc(-c2ncn(C3CCNCC3)c2-c2ccnc(Oc3ccc(Cl)cc3)n2)cc1,1.18
6,NC(=O)CCc1ccccc1Oc1nccc(-c2c(-c3ccc(F)cc3)ncn2C2CCNCC2)n1,0.02
7,COc1ccccc1Oc1nccc(-c2c(-c3ccc(F)cc3)ncn2C2CCNCC2)n1,4.36
8,CS(=O)(=O)c1ccc(Oc2nccc(-c3c(-c4ccc(F)cc4)ncn3C3CCNCC3)n2)cc1,3.76
9,Cc1cccc(Oc2nccc(-c3c(-c4ccc(F)cc4)ncn3C3CCNCC3)n2)c1C,3.42
10,Fc1ccc(-c2ncn(C3CCNCC3)c2-c2ccnc(Oc3cccc(C(F)(F)F)c3)n2)cc1,5.24
11,O=C1NC(=O)C(c2ccccc2Cl)=C1Nc1cc(Cl)c(O)c(Cl)c1,3.74
12,O=C1NC(=O)C(c2ccccc2)=C1Nc1ccccc1,7.42
13,O=C1NC(=O)C(c2cccc([N+](=O)[O-])c2)=C1Nc1cc(Cl)c(O)c(Cl)c1,1.23

# Molecular target: T1, Calcium/calmodulin-dependent protein kinase type IV (Homo sapiens) (UniProt Q16566)
# T1 sequence (whole entry): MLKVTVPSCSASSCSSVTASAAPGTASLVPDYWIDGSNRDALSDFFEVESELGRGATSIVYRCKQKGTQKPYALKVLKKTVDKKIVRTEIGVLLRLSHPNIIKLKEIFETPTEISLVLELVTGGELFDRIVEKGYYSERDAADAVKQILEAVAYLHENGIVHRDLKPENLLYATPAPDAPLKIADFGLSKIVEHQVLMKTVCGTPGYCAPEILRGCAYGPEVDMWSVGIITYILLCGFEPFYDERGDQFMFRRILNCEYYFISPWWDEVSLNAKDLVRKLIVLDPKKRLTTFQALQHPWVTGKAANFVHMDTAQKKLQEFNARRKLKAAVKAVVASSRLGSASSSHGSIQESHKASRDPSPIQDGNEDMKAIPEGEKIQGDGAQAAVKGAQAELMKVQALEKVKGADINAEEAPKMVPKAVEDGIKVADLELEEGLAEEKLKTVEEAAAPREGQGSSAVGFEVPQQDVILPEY
# Conditions: at 0.1 µM
row,SMILES,inhibition [%]
1,O=C(O)c1ccc(Oc2nccc(-c3c(-c4ccc(F)cc4)ncn3C3CCNCC3)n2)cc1,-2.33
2,CC(C)(C)c1ccc(Oc2nccc(-c3c(-c4ccc(F)cc4)ncn3C3CCNCC3)n2)cc1,-1.04
3,Fc1ccc(Oc2nccc(-c3c(-c4ccc(F)cc4)ncn3C3CCNCC3)n2)cc1,-2.12
4,COc1ccccc1C1=C(Nc2ccccc2)C(=O)NC1=O,0.13
5,Fc1ccc(-c2ncn(C3CCNCC3)c2-c2ccnc(Oc3ccc(Cl)cc3)n2)cc1,-0.44
6,NC(=O)CCc1ccccc1Oc1nccc(-c2c(-c3ccc(F)cc3)ncn2C2CCNCC2)n1,-1.83
7,COc1ccccc1Oc1nccc(-c2c(-c3ccc(F)cc3)ncn2C2CCNCC2)n1,0.41
8,CS(=O)(=O)c1ccc(Oc2nccc(-c3c(-c4ccc(F)cc4)ncn3C3CCNCC3)n2)cc1,-1.06
9,Cc1cccc(Oc2nccc(-c3c(-c4ccc(F)cc4)ncn3C3CCNCC3)n2)c1C,-1.27
10,Fc1ccc(-c2ncn(C3CCNCC3)c2-c2ccnc(Oc3cccc(F)c3)n2)cc1,0
11,Fc1ccc(-c2ncn(C3CCNCC3)c2-c2ccnc(Oc3cccc(C(F)(F)F)c3)n2)cc1,-0.04
12,O=C1NC(=O)C(c2ccccc2Cl)=C1Nc1cc(Cl)c(O)c(Cl)c1,-2.03
13,O=C1NC(=O)C(c2ccccc2)=C1Nc1ccccc1,-1.37
14,O=C1NC(=O)C(c2cccc([N+](=O)[O-])c2)=C1Nc1cc(Cl)c(O)c(Cl)c1,1.92

# Molecular target: T1, Calcium/calmodulin-dependent protein kinase type IV (Homo sapiens)
# Conditions: at 1 µM
row,SMILES,inhibition [%]
1,O=C(O)c1ccc(Oc2nccc(-c3c(-c4ccc(F)cc4)ncn3C3CCNCC3)n2)cc1,-0.4
2,CC(C)(C)c1ccc(Oc2nccc(-c3c(-c4ccc(F)cc4)ncn3C3CCNCC3)n2)cc1,2.6
3,Fc1ccc(Oc2nccc(-c3c(-c4ccc(F)cc4)ncn3C3CCNCC3)n2)cc1,0.64
4,COc1ccccc1C1=C(Nc2ccccc2)C(=O)NC1=O,-0.64
5,Fc1ccc(-c2ncn(C3CCNCC3)c2-c2ccnc(Oc3ccc(Cl)cc3)n2)cc1,0.11
6,NC(=O)CCc1ccccc1Oc1nccc(-c2c(-c3ccc(F)cc3)ncn2C2CCNCC2)n1,-0.87
7,COc1ccccc1Oc1nccc(-c2c(-c3ccc(F)cc3)ncn2C2CCNCC2)n1,0.33
8,CS(=O)(=O)c1ccc(Oc2nccc(-c3c(-c4ccc(F)cc4)ncn3C3CCNCC3)n2)cc1,6.78
9,Cc1cccc(Oc2nccc(-c3c(-c4ccc(F)cc4)ncn3C3CCNCC3)n2)c1C,-0.5
10,Fc1ccc(-c2ncn(C3CCNCC3)c2-c2ccnc(Oc3cccc(F)c3)n2)cc1,1.26
11,Fc1ccc(-c2ncn(C3CCNCC3)c2-c2ccnc(Oc3cccc(C(F)(F)F)c3)n2)cc1,1.47
12,O=C1NC(=O)C(c2ccccc2Cl)=C1Nc1cc(Cl)c(O)c(Cl)c1,-3.72
13,O=C1NC(=O)C(c2ccccc2)=C1Nc1ccccc1,-0.46
14,O=C1NC(=O)C(c2cccc([N+](=O)[O-])c2)=C1Nc1cc(Cl)c(O)c(Cl)c1,0.54

# Molecular target: T2, Serine/threonine-protein kinase Chk1 (Homo sapiens) (UniProt O14757);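 further: reported figure is the mean percent inhibition of CHEK1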
# T2 sequence (whole entry): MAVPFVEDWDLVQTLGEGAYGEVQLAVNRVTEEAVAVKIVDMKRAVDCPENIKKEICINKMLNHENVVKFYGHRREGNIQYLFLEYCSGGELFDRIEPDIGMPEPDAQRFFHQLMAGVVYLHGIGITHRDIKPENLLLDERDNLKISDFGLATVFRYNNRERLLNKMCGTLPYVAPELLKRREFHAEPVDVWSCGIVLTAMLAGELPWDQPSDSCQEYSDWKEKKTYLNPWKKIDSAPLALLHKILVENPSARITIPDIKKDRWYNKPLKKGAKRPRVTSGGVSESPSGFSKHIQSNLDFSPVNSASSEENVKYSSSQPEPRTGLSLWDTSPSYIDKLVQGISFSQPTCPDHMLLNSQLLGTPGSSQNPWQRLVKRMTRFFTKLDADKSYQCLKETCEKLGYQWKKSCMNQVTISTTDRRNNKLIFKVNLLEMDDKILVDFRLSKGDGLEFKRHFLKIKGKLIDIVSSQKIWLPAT
# Conditions: at 0.1 µM
row,SMILES,inhibition [%]
1,O=C(O)c1ccc(Oc2nccc(-c3c(-c4ccc(F)cc4)ncn3C3CCNCC3)n2)cc1,6.5
2,CC(C)(C)c1ccc(Oc2nccc(-c3c(-c4ccc(F)cc4)ncn3C3CCNCC3)n2)cc1,-0.85
3,Fc1ccc(Oc2nccc(-c3c(-c4ccc(F)cc4)ncn3C3CCNCC3)n2)cc1,1.08
4,COc1ccccc1C1=C(Nc2ccccc2)C(=O)NC1=O,-2.01
5,NC(=O)CCc1ccccc1Oc1nccc(-c2c(-c3ccc(F)cc3)ncn2C2CCNCC2)n1,0.82
6,COc1ccccc1Oc1nccc(-c2c(-c3ccc(F)cc3)ncn2C2CCNCC2)n1,-4.32
7,CS(=O)(=O)c1ccc(Oc2nccc(-c3c(-c4ccc(F)cc4)ncn3C3CCNCC3)n2)cc1,2.78
8,Cc1cccc(Oc2nccc(-c3c(-c4ccc(F)cc4)ncn3C3CCNCC3)n2)c1C,8.79
9,Fc1ccc(-c2ncn(C3CCNCC3)c2-c2ccnc(Oc3cccc(F)c3)n2)cc1,-4.43
10,Fc1ccc(-c2ncn(C3CCNCC3)c2-c2ccnc(Oc3cccc(C(F)(F)F)c3)n2)cc1,6
11,O=C1NC(=O)C(c2ccccc2Cl)=C1Nc1cc(Cl)c(O)c(Cl)c1,1.07
12,O=C1NC(=O)C(c2ccccc2)=C1Nc1ccccc1,-2.05
13,O=C1NC(=O)C(c2cccc([N+](=O)[O-])c2)=C1Nc1cc(Cl)c(O)c(Cl)c1,2.59
